The results in this text go back to US9763922B2 (priority 2014, dated 2017).

Structures are written as SMILES.

One assay addresses BRD4 BD1 (Homo sapiens (Human), UniProt O60885). Nature of the assay: biochemical.
In another assay the test system is MYC. Nature of the assay: cells. Particulars: Homo sapiens, MV4-11, 4 h, read-out: Myc IC50 (μM).
A further assay deals with CBP (Homo sapiens (Human), UniProt Q92793). Nature of the assay: biochemical.
Sequence of CBP (Q92793 whole entry): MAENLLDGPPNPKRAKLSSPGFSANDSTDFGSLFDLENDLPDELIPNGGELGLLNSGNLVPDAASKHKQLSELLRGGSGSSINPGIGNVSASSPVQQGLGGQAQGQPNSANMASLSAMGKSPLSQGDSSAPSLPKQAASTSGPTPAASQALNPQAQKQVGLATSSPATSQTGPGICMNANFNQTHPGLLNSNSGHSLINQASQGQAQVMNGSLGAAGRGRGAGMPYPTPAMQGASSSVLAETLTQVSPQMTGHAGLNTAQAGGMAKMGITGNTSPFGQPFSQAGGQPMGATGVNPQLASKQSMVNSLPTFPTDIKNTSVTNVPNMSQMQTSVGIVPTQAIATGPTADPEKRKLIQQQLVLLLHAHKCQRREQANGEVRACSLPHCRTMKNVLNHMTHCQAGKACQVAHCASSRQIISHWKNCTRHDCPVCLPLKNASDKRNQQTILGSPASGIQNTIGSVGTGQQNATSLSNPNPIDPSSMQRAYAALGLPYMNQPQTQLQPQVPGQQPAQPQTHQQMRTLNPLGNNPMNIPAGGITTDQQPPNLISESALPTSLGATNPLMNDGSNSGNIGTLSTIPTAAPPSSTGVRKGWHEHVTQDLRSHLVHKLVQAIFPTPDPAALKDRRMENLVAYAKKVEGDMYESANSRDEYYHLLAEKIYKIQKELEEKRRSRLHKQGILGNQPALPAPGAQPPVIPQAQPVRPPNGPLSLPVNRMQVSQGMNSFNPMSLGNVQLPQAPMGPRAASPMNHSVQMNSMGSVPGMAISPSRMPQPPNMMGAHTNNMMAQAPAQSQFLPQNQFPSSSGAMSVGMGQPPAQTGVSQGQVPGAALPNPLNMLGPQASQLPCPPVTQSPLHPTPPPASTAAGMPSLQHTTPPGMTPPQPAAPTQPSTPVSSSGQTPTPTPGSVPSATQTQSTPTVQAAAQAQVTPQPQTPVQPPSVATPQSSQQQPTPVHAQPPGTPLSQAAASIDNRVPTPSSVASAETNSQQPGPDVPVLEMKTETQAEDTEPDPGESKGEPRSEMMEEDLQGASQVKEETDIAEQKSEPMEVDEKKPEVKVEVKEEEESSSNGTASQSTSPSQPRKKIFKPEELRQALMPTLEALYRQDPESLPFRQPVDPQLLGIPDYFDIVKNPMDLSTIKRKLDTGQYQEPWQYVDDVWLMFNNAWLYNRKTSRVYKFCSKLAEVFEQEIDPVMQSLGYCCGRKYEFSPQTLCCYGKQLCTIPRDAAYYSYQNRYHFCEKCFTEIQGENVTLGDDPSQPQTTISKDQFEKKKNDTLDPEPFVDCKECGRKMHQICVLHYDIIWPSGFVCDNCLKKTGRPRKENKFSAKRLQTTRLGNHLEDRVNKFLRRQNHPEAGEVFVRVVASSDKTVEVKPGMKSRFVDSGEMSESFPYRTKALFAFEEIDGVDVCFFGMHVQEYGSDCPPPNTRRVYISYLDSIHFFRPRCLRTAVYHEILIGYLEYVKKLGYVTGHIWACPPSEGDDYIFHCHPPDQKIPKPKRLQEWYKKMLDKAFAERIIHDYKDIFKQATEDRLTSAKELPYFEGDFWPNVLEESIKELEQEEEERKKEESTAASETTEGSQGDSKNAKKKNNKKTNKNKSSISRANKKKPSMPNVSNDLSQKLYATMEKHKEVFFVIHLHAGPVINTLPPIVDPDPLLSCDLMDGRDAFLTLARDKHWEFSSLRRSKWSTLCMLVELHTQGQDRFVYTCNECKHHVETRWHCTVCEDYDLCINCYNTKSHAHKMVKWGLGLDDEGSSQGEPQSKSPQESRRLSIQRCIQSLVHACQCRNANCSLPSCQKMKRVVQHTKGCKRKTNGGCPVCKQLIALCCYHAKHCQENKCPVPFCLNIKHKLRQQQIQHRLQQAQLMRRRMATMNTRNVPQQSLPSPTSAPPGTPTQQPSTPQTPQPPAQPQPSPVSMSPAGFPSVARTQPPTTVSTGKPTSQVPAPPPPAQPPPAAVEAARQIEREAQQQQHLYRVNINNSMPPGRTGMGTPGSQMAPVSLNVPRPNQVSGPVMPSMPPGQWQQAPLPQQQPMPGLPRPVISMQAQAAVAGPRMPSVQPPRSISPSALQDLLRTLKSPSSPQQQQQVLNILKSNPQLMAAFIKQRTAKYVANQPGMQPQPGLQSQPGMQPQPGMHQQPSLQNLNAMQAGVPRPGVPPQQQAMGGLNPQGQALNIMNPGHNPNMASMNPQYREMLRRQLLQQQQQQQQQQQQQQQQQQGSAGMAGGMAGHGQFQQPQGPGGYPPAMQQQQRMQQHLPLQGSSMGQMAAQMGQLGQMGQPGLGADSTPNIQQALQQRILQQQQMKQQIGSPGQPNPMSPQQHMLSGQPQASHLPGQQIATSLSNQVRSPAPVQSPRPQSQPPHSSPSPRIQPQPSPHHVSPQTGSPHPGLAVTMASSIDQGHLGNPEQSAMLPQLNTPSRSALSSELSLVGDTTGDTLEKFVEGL

On to `COc1cc(-c2ccc3c(c2)CCCN3c2nn(C3COC3)c3c2CN(C(C)=O)CC3)ccn1` [Example 17, 1-[3-[6-(2-methoxy-4-pyridyl)-3,4-dihydro-2H-quinolin-1-yl]-1-(oxetan-3-yl)-6,7-dihydro-4H-pyrazolo[4,3-c]pyridin-5-yl]ethanone], for which the values for the IC50 against BRD4 BD1 and in the assay on MYC were 8800 nM and 1.14 µM, respectively.

As to `COc1ccc(-c2ccc3c(c2)CCCN3c2nn(C3COC3)c3c2CN(C(C)=O)CC3)cn1` [Example 19, 1-[3-[6-(6-methoxy-3-pyridyl)-3,4-dihydro-2H-quinolin-1-yl]-1-(oxetan-3-yl)-6,7-dihydro-4H-pyrazolo[4,3-c]pyridin-5-yl]ethanone], the half-maximal inhibitory concentration (IC50) on BRD4 BD1 is greater than 20000 nM; in the assay with MYC, 2.6 µM. For the compound `CC(=O)Nc1ccc(-c2ccc3c(c2)CCCN3c2nn(C3COC3)c3c2CN(C(C)=O)CC3)cn1` [Example 33, N-[5-[1-[5-acetyl-1-(oxetan-3-yl)-6,7-dihydro-4H-pyrazolo[4,3-c]pyridin-3-yl]-3,4-dihydro-2H-quinolin-6-yl]-2-pyridyl]acetamide], the figures for the IC50 on BRD4 BD1 and with MYC were greater than 20000 nM and 1.58 µM, respectively.

As to `CC(=O)N1CCc2c(c(N3CCCc4cc(-c5cnn(C)c5C)ccc43)nn2C2COC2)C1` [Example 36, 1-[3-[6-(1,5-dimethylpyrazol-4-yl)-3,4-dihydro-2H-quinolin-1-yl]-1-(oxetan-3-yl)-6,7-dihydro-4H-pyrazolo[4,3-c]pyridin-5-yl]ethanone], the results for the IC50 against BRD4 BD1 and in the assay on MYC were greater than 20000 nM and 1.86 µM, respectively. As for `CC(=O)N1CCc2c(c(N3CCCc4cc(-c5cnn(C(F)F)c5)ccc43)nn2C2COC2)C1` [Example 37, 1-[3-[6-[1-(difluoromethyl)pyrazol-4-yl]-3,4-dihydro-2H-quinolin-1-yl]-1-(oxetan-3-yl)-6,7-dihydro-4H-pyrazolo[4,3-c]pyridin-5-yl]ethanone], the IC50 at BRD4 BD1 is greater than 20000 nM. In turn, `CC(=O)N1CCc2c(c(N3CCCc4cc(-c5ncn(C)n5)ccc43)nn2C2COC2)C1` [Example 41, 1-[3-[6-(1-methyl-1,2,4-triazol-3-yl)-3,4-dihydro-2H-quinolin-1-yl]-1-(oxetan-3-yl)-6,7-dihydro-4H-pyrazolo[4,3-c]pyridin-5-yl]ethanone] registered an IC50 against BRD4 BD1 greater than 20000 nM.

`CC(=O)N1CCc2c(c(N3CCCc4cc(-c5cncc(S(C)(=O)=O)c5)ccc43)nn2C2COC2)C1` [Example 43, 1-[3-[6-(5-methylsulfonyl-3-pyridyl)-3,4-dihydro-2H-quinolin-1-yl]-1-(oxetan-3-yl)-6,7-dihydro-4H-pyrazolo[4,3-c]pyridin-5-yl]ethanone] registered an IC50 on BRD4 BD1 greater than 20000 nM. Take `COc1cc(-c2ccc3c(c2)CCCN3c2nn([C@H]3CCOC3)c3c2CN(C(C)=O)CC3)ccn1` [Example 48, 1-[3-[6-(2-methoxy-4-pyridyl)-3,4-dihydro-2H-quinolin-1-yl]-1-[(3S)-tetrahydrofuran-3-yl]-6,7-dihydro-4H-pyrazolo[4,3-c]pyridin-5-yl]ethanone]: the IC50 at BRD4 BD1 stood at 7700 nM; in the assay on MYC, 0.669 µM. With `CC(=O)N1CCc2c(c(N3CCCc4cc(-c5cnn(C6CC6)c5)ccc43)nn2[C@H]2CCOC2)C1` [Example 49, 1-[3-[6-(1-cyclopropylpyrazol-4-yl)-3,4-dihydro-2H-quinolin-1-yl]-1-[(3S)-tetrahydrofuran-3-yl]-6,7-dihydro-4H-pyrazolo[4,3-c]pyridin-5-yl]ethanone], the IC50 came to 14300 nM against BRD4 BD1 and 1.13 µM in the assay on MYC. For `CC(=O)N1CCc2c(c(N3CCCc4cc(-c5cn(C)nc5C)ccc43)nn2[C@H]2CCOC2)C1` [Example 55, 1-[3-[6-(1,3-dimethylpyrazol-4-yl)-3,4-dihydro-2H-quinolin-1-yl]-1-[(3S)-tetrahydrofuran-3-yl]-6,7-dihydro-4H-pyrazolo[4,3-c]pyridin-5-yl]ethanone], the IC50 on BRD4 BD1 is greater than 20000 nM; with MYC, 0.254 µM. On to `CC(=O)N1CCc2c(c(N3CCCc4cc(-c5cc(C)[nH]n5)ccc43)nn2[C@H]2CCOC2)C1` [Example 58, 1-[3-[6-(5-methyl-1H-pyrazol-3-yl)-3,4-dihydro-2H-quinolin-1-yl]-1-[(3S)-tetrahydrofuran-3-yl]-6,7-dihydro-4H-pyrazolo[4,3-c]pyridin-5-yl]ethanone], for which the IC50 is greater than 20000 nM against BRD4 BD1 and 0.199 µM in the assay on MYC. `CC(=O)Nc1ccc(-c2ccc3c(c2)CCCN3c2nn(C3CCOCC3)c3c2CN(C(C)=O)CC3)cn1` [Example 61, N-[5-[1-(5-acetyl-1-tetrahydropyran-4-yl-6,7-dihydro-4H-pyrazolo[4,3-c]pyridin-3-yl)-3,4-dihydro-2H-quinolin-6-yl]-2-pyridyl]acetamide] returned an IC50 at BRD4 BD1 greater than 20000 nM.

With `CC(=O)N1CCc2c(c(N(c3ccccc3)c3ccc(-c4cnn(C)c4)cc3)nn2[C@H]2CCOC2)C1` [Example 229, 1-[3-(N-[4-(1-methylpyrazol-4-yl)phenyl]anilino)-1-[(3S)-tetrahydrofuran-3-yl]-6,7-dihydro-4H-pyrazolo[4,3-c]pyridin-5-yl]ethanone], the IC50 against CBP was 461 nM; at BRD4 BD1, greater than 20000 nM.
